Some of the results follow.
Assays:
Test in all cases: glycan array binding signal (z-score within array); higher = stronger binding
Conditions in all cases: glycan notation: IUPAC condensed, linker removed
[1] = biological target: Neu5Ac(a2-3)Gal(b1-3)GalNAc
Summary of the method: (§1)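 Arrays were curated from the Consortium for Functional Glycomics database, 3228 in total, and kept only where the protein sequence was available. Binding is expressed as a within-array Z-score. This score was averaged across arrays of the same protein sequence at different concentrations or buffers and across linkers, and negative values can be read as non-binding.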

[2] = biological target: Neu5Ac(a2-3)Gal(b1-3)GalNAc(b1-3)Gal(a1-4)Gal(b1-4)Glc
Summary of the method: as §1

[3] = biological target: Neu5Ac(a2-3)Gal(b1-3)GalNAc(b1-4)Gal(b1-4)Glc
Summary of the method: as §1

[4] = biological target: Neu5Ac(a2-3)Gal(b1-3)GalNAc(b1-4)[Neu5Ac(a2-3)]Gal(b1-4)Glc
Summary of the method: as §1

[5] = biological target: Neu5Ac(a2-3)Gal(b1-3)GalNAc(b1-4)[Neu5Ac(a2-8)Neu5Ac(a2-3)]Gal(b1-4)Glc
Summary of the method: as §1

[6] = biological target: Neu5Ac(a2-3)Gal(b1-3)GalNAc6S
Summary of the method: as §1

[7] = biological target: Neu5Ac(a2-3)Gal(b1-3)GlcNAc
Summary of the method: as §1

[8] = biological target: Neu5Ac(a2-3)Gal(b1-3)GlcNAc(b1-2)Man
Summary of the method: as §1

[9] = biological target: Neu5Ac(a2-3)Gal(b1-3)GlcNAc(b1-2)Man(a1-3)[GlcNAc(b1-4)][Neu5Ac(a2-3)Gal(b1-3)GlcNAc(b1-2)Man(a1-6)]Man(b1-4)GlcNAc(b1-4)GlcNAc
Summary of the method: as §1

[10] = biological target: Neu5Ac(a2-3)Gal(b1-3)GlcNAc(b1-2)Man(a1-3)[Neu5Ac(a2-3)Gal(b1-3)GlcNAc(b1-2)Man(a1-6)]Man(b1-4)GlcNAc(b1-4)GlcNAc
Summary of the method: as §1

[11] = biological target: Neu5Ac(a2-3)Gal(b1-3)GlcNAc(b1-2)[Neu5Ac(a2-3)Gal(b1-3)GlcNAc(b1-4)]Man(a1-6)[Neu5Ac(a2-3)Gal(b1-3)GlcNAc(b1-2)Man(a1-3)]Man(b1-4)GlcNAc(b1-4)GlcNAc
Summary of the method: as §1

[12] = biological target: Neu5Ac(a2-3)Gal(b1-3)GlcNAc(b1-3)Gal(b1-3)GlcNAc
Summary of the method: as §1

[13] = biological target: Neu5Ac(a2-3)Gal(b1-3)GlcNAc(b1-3)Gal(b1-4)GlcNAc
Summary of the method: as §1

[14] = biological target: Neu5Ac(a2-3)Gal(b1-3)GlcNAc(b1-3)GalNAc
Summary of the method: as §1

[15] = biological target: Neu5Ac(a2-3)Gal(b1-3)GlcNAc(b1-6)GalNAc
Summary of the method: as §1

[16] = biological target: Neu5Ac(a2-3)Gal(b1-3)GlcNAc6S
Summary of the method: as §1

[17] = biological target: Neu5Ac(a2-3)Gal(b1-3)[Fuc(a1-4)]GlcNAc
Summary of the method: as §1

[18] = biological target: Neu5Ac(a2-3)Gal(b1-3)[Fuc(a1-4)]GlcNAc(b1-3)Gal(b1-3)[Fuc(a1-4)]GlcNAc
Summary of the method: as §1

[19] = biological target: Neu5Ac(a2-3)Gal(b1-3)[Fuc(a1-4)]GlcNAc(b1-3)Gal(b1-4)[Fuc(a1-3)]GlcNAc
Summary of the method: as §1

[20] = biological target: Neu5Ac(a2-3)Gal(b1-3)[GlcNAc(b1-6)]GalNAc
Summary of the method: as §1

[21] = biological target: Neu5Ac(a2-3)Gal(b1-3)[Neu5Ac(a2-6)]GalNAc
Summary of the method: as §1

[22] = biological target: Neu5Ac(a2-3)Gal(b1-3)[Neu5Ac(a2-6)]GlcNAc(b1-3)[Fuc(a1-3)[Gal(b1-4)]GlcNAc(b1-6)]Gal(b1-4)Glc
Summary of the method: as §1

[23] = biological target: Neu5Ac(a2-3)Gal(b1-3)]Neu5Ac(a2-3)Gal(b1-4)]GlcNAc
Summary of the method: as §1

[24] = biological target: Neu5Ac(a2-3)Gal(b1-4)Glc
Summary of the method: as §1

[25] = biological target: Neu5Ac(a2-3)Gal(b1-4)GlcNAc
Summary of the method: as §1

[26] = biological target: Neu5Ac(a2-3)Gal(b1-4)GlcNAc(b1-2)Man
Summary of the method: as §1

[27] = biological target: Neu5Ac(a2-3)Gal(b1-4)GlcNAc(b1-2)Man(a1-3)[GlcNAc(b1-4)][Neu5Ac(a2-3)Gal(b1-4)GlcNAc(b1-2)Man(a1-6)]Man(b1-4)GlcNAc(b1-4)GlcNAc
Summary of the method: as §1

[28] = biological target: Neu5Ac(a2-3)Gal(b1-4)GlcNAc(b1-2)Man(a1-3)[Neu5Ac(a2-3)Gal(b1-4)GlcNAc(b1-2)Man(a1-6)]Man(b1-4)GlcNAc(b1-4)GlcNAc
Summary of the method: as §1

[29] = biological target: Neu5Ac(a2-3)Gal(b1-4)GlcNAc(b1-2)Man(a1-3)[Neu5Ac(a2-3)Gal(b1-4)GlcNAc(b1-2)Man(a1-6)]Man(b1-4)GlcNAc(b1-4)[Fuc(a1-6)]GlcNAc
Summary of the method: as §1

[30] = biological target: Neu5Ac(a2-3)Gal(b1-4)GlcNAc(b1-2)Man(a1-3)[Neu5Ac(a2-6)Gal(b1-4)GlcNAc(b1-2)Man(a1-6)]Man(b1-4)GlcNAc(b1-4)GlcNAc
Summary of the method: as §1

[31] = biological target: Neu5Ac(a2-3)Gal(b1-4)GlcNAc(b1-2)[Neu5Ac(a2-3)Gal(b1-4)GlcNAc(b1-4)]Man(a1-3)[GlcNAc(b1-4)][Neu5Ac(a2-3)Gal(b1-4)GlcNAc(b1-2)[Neu5Ac(a2-3)Gal(b1-4)GlcNAc(b1-6)]Man(a1-6)]Man(b1-4)GlcNAc(b1-4)GlcNAc
Summary of the method: as §1

[32] = biological target: Neu5Ac(a2-3)Gal(b1-4)GlcNAc(b1-2)[Neu5Ac(a2-3)Gal(b1-4)GlcNAc(b1-4)]Man(a1-3)[GlcNAc(b1-4)][Neu5Ac(a2-3)Gal(b1-4)GlcNAc(b1-4)Man(a1-6)]Man(b1-4)GlcNAc(b1-4)GlcNAc
Summary of the method: as §1

[33] = biological target: Neu5Ac(a2-3)Gal(b1-4)GlcNAc(b1-2)[Neu5Ac(a2-3)Gal(b1-4)GlcNAc(b1-6)]Man(a1-6)[Neu5Ac(a2-3)Gal(b1-4)GlcNAc(b1-2)Man(a1-3)][GlcNAc(b1-4)]Man(b1-4)GlcNAc(b1-4)GlcNAc
Summary of the method: as §1

[34] = biological target: Neu5Ac(a2-3)Gal(b1-4)GlcNAc(b1-3)Gal
Summary of the method: as §1

[35] = biological target: Neu5Ac(a2-3)Gal(b1-4)GlcNAc(b1-3)Gal(b1-3)GlcNAc
Summary of the method: as §1

[36] = biological target: Neu5Ac(a2-3)Gal(b1-4)GlcNAc(b1-3)Gal(b1-4)GlcNAc
Summary of the method: as §1

[37] = biological target: Neu5Ac(a2-3)Gal(b1-4)GlcNAc(b1-3)Gal(b1-4)GlcNAc(b1-2)Man(a1-3)[Neu5Ac(a2-3)Gal(b1-4)GlcNAc(b1-3)Gal(b1-4)GlcNAc(b1-2)Man(a1-6)]Man(b1-4)GlcNAc(b1-4)GlcNAc
Summary of the method: as §1

[38] = biological target: Neu5Ac(a2-3)Gal(b1-4)GlcNAc(b1-3)Gal(b1-4)GlcNAc(b1-3)Gal(b1-4)GlcNAc
Summary of the method: as §1

[39] = biological target: Neu5Ac(a2-3)Gal(b1-4)GlcNAc(b1-3)Gal(b1-4)GlcNAc(b1-3)Gal(b1-4)GlcNAc(b1-2)Man(a1-3)[Neu5Ac(a2-3)Gal(b1-4)GlcNAc(b1-3)Gal(b1-4)GlcNAc(b1-3)Gal(b1-4)GlcNAc(b1-2)Man(a1-6)]GalNAc
Summary of the method: as §1

[40] = biological target: Neu5Ac(a2-3)Gal(b1-4)GlcNAc(b1-3)Gal(b1-4)GlcNAc(b1-3)GalNAc
Summary of the method: as §1

[41] = biological target: Neu5Ac(a2-3)Gal(b1-4)GlcNAc(b1-3)Gal(b1-4)GlcNAc(b1-3)[Neu5Ac(a2-3)Gal(b1-4)GlcNAc(b1-3)Gal(b1-4)GlcNAc(b1-6)]GalNAc
Summary of the method: as §1

[42] = biological target: Neu5Ac(a2-3)Gal(b1-4)GlcNAc(b1-3)Gal(b1-4)GlcNAc(b1-6)[Gal(b1-3)]GalNAc
Summary of the method: as §1

[43] = biological target: Neu5Ac(a2-3)Gal(b1-4)GlcNAc(b1-3)Gal(b1-4)[Fuc(a1-3)]GlcNAc
Summary of the method: as §1

[44] = biological target: Neu5Ac(a2-3)Gal(b1-4)GlcNAc(b1-3)GalNAc
Summary of the method: as §1

[45] = biological target: Neu5Ac(a2-3)Gal(b1-4)GlcNAc(b1-3)[Neu5Ac(a2-3)Gal(b1-4)GlcNAc(b1-6)]GalNAc
Summary of the method: as §1

B1: PfulAvr4 (Pseudocercospora fuligena) (protein)
chain: HHHHHHDYKDDDDKTYVQDKTPAFVCPAADIKTTKCLGPKDCLYPSPKTCNGYIQCSPADDSYLTGIIHEMPCPSGLLWNDNKKWCDWPENTTCGLVKSAGATEVDATKQGPTPGKYHG
- glycan array binding signal (z-score) [1]: -0.083
- glycan array binding signal (z-score) [2]: -0.164
- glycan array binding signal (z-score) [3]: -0.134
- glycan array binding signal (z-score) [4]: -0.118
- glycan array binding signal (z-score) [5]: 0.032
- glycan array binding signal (z-score) [6]: -0.124
- glycan array binding signal (z-score) [7]: -0.137
- glycan array binding signal (z-score) [8]: -0.12
- glycan array binding signal (z-score) [9]: -0.093
- glycan array binding signal (z-score) [10]: 1.27
- glycan array binding signal (z-score) [11]: -0.077
- glycan array binding signal (z-score) [12]: -0.097
- glycan array binding signal (z-score) [13]: -0.088
- glycan array binding signal (z-score) [14]: -0.179
- glycan array binding signal (z-score) [15]: -0.082
- glycan array binding signal (z-score) [16]: -0.115
- glycan array binding signal (z-score) [17]: -0.143
- glycan array binding signal (z-score) [18]: -0.104
- glycan array binding signal (z-score) [19]: -0.108
- glycan array binding signal (z-score) [20]: -0.161
- glycan array binding signal (z-score) [21]: -0.088
- glycan array binding signal (z-score) [22]: -0.081
- glycan array binding signal (z-score) [23]: -0.163
- glycan array binding signal (z-score) [24]: -0.088
- glycan array binding signal (z-score) [25]: -0.104
- glycan array binding signal (z-score) [26]: 0.348
- glycan array binding signal (z-score) [27]: -0.112
- glycan array binding signal (z-score) [28]: -0.065
- glycan array binding signal (z-score) [29]: -0.084
- glycan array binding signal (z-score) [30]: 0.081
- glycan array binding signal (z-score) [31]: -0.137
- glycan array binding signal (z-score) [32]: -0.056
- glycan array binding signal (z-score) [33]: -0.064
- glycan array binding signal (z-score) [34]: -0.129
- glycan array binding signal (z-score) [35]: -0.121
- glycan array binding signal (z-score) [36]: -0.155
- glycan array binding signal (z-score) [37]: -0.094
- glycan array binding signal (z-score) [38]: -0.119
- glycan array binding signal (z-score) [39]: 0.179
- glycan array binding signal (z-score) [40]: -0.095
- glycan array binding signal (z-score) [41]: 0.035
- glycan array binding signal (z-score) [42]: -0.174
- glycan array binding signal (z-score) [43]: -0.123
- glycan array binding signal (z-score) [44]: -0.086
- glycan array binding signal (z-score) [45]: 0.019

— the supplement of paper PMC8728848
